{"source": "paper PMC12136788", "binders": {"B1": {"name": "113297594_113297714_12607_3pUTR_ENSG00000114999_ENST00000233336|human|control|control (ssRNA)", "RNA": "GGGAGUUCUACAGUCCGACGAUCAAAGAAGGCUGAGAUUCUUGAUCAGGAUUGUGUUCAAUUGGUAGAUCAAUUUGGGGCCUAUUUUCAUCCUAACAAUAAUUAUCUCCCAAUCCAUAAACAUGGGAUGUCUUUCCAUUUAUUCAACAGAGGAUUGAGCAUCA"}, "B2": {"name": "chr2:9570881:9570882:+_ENSG00000119203_ENST00000238112|hu_hu|motif|central (ssRNA)", "RNA": "GGGAGUUCUACAGUCCGACGAUCACUUGUCUUCUGUAGAAACCAGGGCAGAGCUCCACAGUGAUCCAAAUGGAAAUGACGGAUUAAUAGGAGAUCAAUCUCAGCUGGGUCAAUUAAAUCAAUAUAAGGAAGAGCAUCCAUUCCCAACAGAGGAUUGAGCAUCA"}, "B3": {"name": "chr17:23954396:23954397:+_ENSMUSG00000039218_ENSMUST00000088621|mus_mus|motif|central (ssRNA)", "RNA": "GGGAGUUCUACAGUCCGACGAUCCUCUUUUAAUUCAGAAGGCUCCAAUCUGCUCUGCACCAGAAAAGAUUUAGAGUCGGCGGAAGGAUAUAUGCUAGAGUCAGGUUUAGUCUUACUCUGCUCAGGAGACAUUCCUGACUUCAGCAACAGAGGAUUGAGCAUCA"}, "B4": {"name": "chr17:35971825:35971826:-_ENSMUSG00000001525_ENSMUST00000001566|mus_mus|FALSE|FALSE (ssRNA)", "RNA": "GGGAGUUCUACAGUCCGACGAUCUGAGUGCCUGCCAUGUGCCAGGCACCAUUUACCCCCAAUGAGAAAACAGAACAAAACAAAUACAAGACAGAGGCAGCAGAAAGAAACUGGAGGACAAAGGGCAGUUGGAGAAAGCUGAGGCAACAGAGGAUUGAGCAUCA"}, "B5": {"name": "chr1:82408827:82408828:+_ENSG00000117114_ENST00000319517|hu_hu|FALSE|FALSE (ssRNA)", "RNA": "GGGAGUUCUACAGUCCGACGAUCAUCUACUCGAUUUGGAAGUUUAUAUGUUGUUGUUUGGCGACUAUUUUGGAAAUCUUCUAAAGAAGCAUAUUCUAUUAAAGUAUCGGUACGAUAGGGAGUCCAGGGCAUGAAAUAAAUUUUCAACAGAGGAUUGAGCAUCA"}, "B6": {"name": "chr6:38489255:38489256:+_ENSMUSG00000019689_ENSMUST00000019833|mus_hu|motif|central (ssRNA)", "RNA": "GGGAGUUCUACAGUCCGACGAUCACGAGUUGUAUCUCCCUUGCCAUGAAAUUCCUGAUGUAGGGCCACAUGUUUCCGGAUGCGGCGCAGGAGGCAGAGAUAGGUGGCAGCUUGGAAAUGAAGCUCAUGUUGGGCUCUGCACAACAACAGAGGAUUGAGCAUCA"}, "B7": {"name": "110453951_110455679_4471_CDS_ENSMUSG00000044791_ENSMUST00000153838|mouse|control|control (ssRNA)", "RNA": "GGGAGUUCUACAGUCCGACGAUCUCUUUCAUCCUUAGAAAGAGGUGUACACUCACACUGCAUUCGCUUAAUAUCCCGGUGGGAUUUGUUCUUCUUCCUUUCUGUUAAAUAAACAUUUUCUUCAAUAAGAUCAAAGUAACAUGGCAACAGAGGAUUGAGCAUCA"}, "B8": {"name": "140882688_140882808_658_ncRNA_ENSMUSG00000030979_ENSMUST00000135760|mouse|control|control (ssRNA)", "RNA": "GGGAGUUCUACAGUCCGACGAUCAACUCUGCCUGAACAUGGUCACGUCUGCCUCCUGGGUCUCAGGACCAUCUUUAGAGGUGUCCUUAGCUAAUUCUAGUCACCUUUGUCCUUGAGCAUUUUUGGAAGAGUAUCUCCUUUGAUCAACAGAGGAUUGAGCAUCA"}, "B9": {"name": "chr11:78564483:78564484:-_ENSMUSG00000049489_ENSMUST00000059468|mus_mus|motif|central (ssRNA)", "RNA": "GGGAGUUCUACAGUCCGACGAUCAAUCUGAAUGAGAUCAGACACAAUAUUGUCAAUGAUUGGCUUGGUAAGGUCAUCACGGAAUACCUGCCACCAAGGCUUCUCGGCCUCACCCUCUGCAGGCACCUCGACUCCAUAGACCUGCAACAGAGGAUUGAGCAUCA"}, "B10": {"name": "chr11:86546118:86546119:-_ENSMUSG00000047126_ENSMUST00000103186|perfect_dup|FALSE|FALSE (ssRNA)", "RNA": "GGGAGUUCUACAGUCCGACGAUCUGCAAAACAAAAUAACGUUGAUUCUUCUGCAUUUCCUUCCAUCUUAAACUGUGCAAAGCUAGCUGCAUGUCCUUCAAUGGGCUGAGACACUUUCCUAUCUACAGAAUAUAGCUGCAUAGCCAACAGAGGAUUGAGCAUCA"}, "B11": {"name": "chr2:47387792:47387793:-_ENSG00000143933_ENST00000272298|hu_hu|hu_hu_hu_mus_True|1_8 (ssRNA)", "RNA": "GGGAGUUCUACAGUCCGACGAUCUAAGGACAAUGACAGUAAGAUAAGGGAAGAAAACAUGGAGGAAUGAAGUCCUAAUUACUAUACAUGCAUAUUUUUUGACAGUAGGGGGGGGGAACCUUUUACAUAAGUUACAAACAAAGACAACAGAGGAUUGAGCAUCA"}, "B12": {"name": "61440021_61440141_3660_3pUTR_ENSG00000126814_ENST00000261249|human|control|control (ssRNA)", "RNA": "GGGAGUUCUACAGUCCGACGAUCCAUAGCACUGGCAUCUGCUUCUGGGGAAGCCUCAGGAAGCUUUUACUCAUGGUAGAAGGCAAAAUAGGAGAAGGCACUUCACAUGGCGAAGGCAGGAGCAAGAGAGUGUGGGGGGCGAGUCAACAGAGGAUUGAGCAUCA"}, "B13": {"name": "chr11:31955072:31955073:+_ENSMUSG00000020297_ENSMUST00000020537|mus_mus|FALSE|FALSE (ssRNA)", "RNA": "GGGAGUUCUACAGUCCGACGAUCCUUGUGCUUGUAGACAAAUCCUUCAGGACAGCUGUGGUCAUAGGUAAAGGCUUUGUAAACCACCAGGAACACAAUGCAAGCAAGGAAGGCAAGGGCCAGGCUGACAAGAAUGGUGACCGUCAACAGAGGAUUGAGCAUCA"}, "B14": {"name": "chr4:17845017:17845018:+_ENSG00000109805_ENST00000514176|hu_mus|hu_hu_hu_mus_False|68_68 (ssRNA)", "RNA": "GGGAGUUCUACAGUCCGACGAUCGCUCUCUUAACUUGUAUCUUCAUUAAGGAACUCUGCAAGGUUAGUUUACUUUUUCUGUAGCGCAGCUGUUUUGGCUCGUCUGGGUAAUCUCAUCUUCAUUUCUGAUGGUGGUUCAUGAUCCAACAGAGGAUUGAGCAUCA"}, "B15": {"name": "chr9:90322654:90322655:+_ENSG00000196730_ENST00000408954|hu_mus|FALSE|FALSE (ssRNA)", "RNA": "GGGAGUUCUACAGUCCGACGAUCUUUCUUUCUUUCCUUAUUUCUUCCUUUCUUUUUCUUUUUUUUUUUUCUUUUUUGAUAAGGAUAAUCAAUAAAGGAGUUAAAUUGUUUUCAUCGAAAAGUUUGGAAUCUCAAUAAAAUUAUCAACAGAGGAUUGAGCAUCA"}, "B16": {"name": "chr16:11966626:11966627:-_ENSG00000103342_ENST00000563468|hu_hu|motif|central (ssRNA)", "RNA": "GGGAGUUCUACAGUCCGACGAUCUUGUAACAUGUGCACACACACUCGCACACUCAGAAUGAUCUGCCUGGGGGAAAAAUACGGAAUAUGCCUAAGGGGAAAAUGAAAAAUAAAAAAAUUCCUGUAGGUUUUCAUUAUUGUAGGCAACAGAGGAUUGAGCAUCA"}, "B17": {"name": "chr8:30643436:30643437:-_ENSG00000104695_ENST00000221138|hu_hu|FALSE|FALSE (ssRNA)", "RNA": "GGGAGUUCUACAGUCCGACGAUCUUUUCUUAAAAAUAAAACUCCAACUCUAUUAAUCCAUGCCAGUUAAACACUAUAACUAAAAUUUCCAAAUAAGCGCAAAAGGAGAUGAAGCAGUUAGUUACCUUUUUUGCUUGAACAGUCCAACAGAGGAUUGAGCAUCA"}, "B18": {"name": "chr17:65740002:65740003:+_ENSG00000130935_ENST00000581375|hu_hu|hu_hu_hu_mus_False|48_68 (ssRNA)", "RNA": "GGGAGUUCUACAGUCCGACGAUCAACAAAUCUUUCUUCCCUGGACGAACAGGAAGAUUCAUAUUAACUUUAUAAAAUAUCCAUCAAGGAGAAUUGAGUGGCCACACCUUUACUCCCAGCACUUUGGGAGGUGGAUCUCUGAGUCAACAGAGGAUUGAGCAUCA"}, "B19": {"name": "chr8:95500983:95500984:-_ENSG00000164944_ENST00000437199|hu_hu|hu_hu_hu_mus_True|58_98 (ssRNA)", "RNA": "GGGAGUUCUACAGUCCGACGAUCAGAACACAUCUAUUCGUGUAAAGACCGUACAUGACGGCCUCUACCACUGCCUCCCACUAACAACUUUCCUCUCGAGCCUCCACUGCCGCUAUUUGUACUAGCCCAGGACGGUCCCAGGCCCAACAGAGGAUUGAGCAUCA"}, "B20": {"name": "55214808_55276974_766_CDS_ENSG00000115310_ENST00000317610|human|control|control (ssRNA)", "RNA": "GGGAGUUCUACAGUCCGACGAUCGUCUCUCCAGUACAGGAGGUCAACAACCACUGAGCCCGAGGAGCCCCUGCGCUUGGGCGCGGCCGGGGUGGAGGGGGGCGCGGCGGGAGCCGGGGCUGGCGGGGUCCACACGGGCUCUGCCAACAGAGGAUUGAGCAUCA"}, "B21": {"name": "chr1:150549822:150549823:-_ENSG00000143384_ENST00000369026|hu_mus|FALSE|FALSE (ssRNA)", "RNA": "GGGAGUUCUACAGUCCGACGAUCUAAAUACACAUGUUUUCACAGAUGCAUGUAGUUUGGUGGCUGGAGCUUUAAGAGUCCCCUAUUGCACUCACAAGGCUAUCUUAUUAGAUAUGCCAGACCAGCCCCUACUCCAGCAACACCCAACAGAGGAUUGAGCAUCA"}, "B22": {"name": "chr11:87793471:87793472:-_ENSMUSG00000020483_ENSMUST00000020775|mus_mus|mus_mus_mus_hu_False|1_78 (ssRNA)", "RNA": "GGGAGUUCUACAGUCCGACGAUCUGGACUUGAAAAUAAAAGAAUAAGCUGGAUCCCCCCACCCCUUACAUUGUCAACCCUACACGAGAGUUUUGAAGGCGACUCAUGAAAAUCAGCAGCUCAAACGGCAAUGACCACCCACCCCAACAGAGGAUUGAGCAUCA"}}, "note": "The other results are listed elsewhere or left out."}
{"target": "T1, UNK ZnF1-3 (human, UniProt Q9C0B0 31-174)", "T1 sequence": "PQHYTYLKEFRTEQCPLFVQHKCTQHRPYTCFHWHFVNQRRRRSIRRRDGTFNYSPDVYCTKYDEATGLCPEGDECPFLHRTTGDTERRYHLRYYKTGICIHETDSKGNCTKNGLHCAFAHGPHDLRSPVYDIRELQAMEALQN", "assay": "nsRBNS (natural sequence RNA bind-n-seq); RBNS binding buffer (assumed for nsRBNS): 25 mM Tris pH 7.5, 150 mM KCl, 3 mM MgCl2, 0.01% Triton X-100, 500 ug/ml BSA, 20 U/ml SUPERase-In, 4 C; UNK is unkempt and MSI1 is Musashi-1; names of the RNAs are library labels; protein concentration not given here; high values mean tight binding", "units": {"binding signal": "enrichment R"}}
{"binder": "B1", "binding signal": 0.825}
{"binder": "B2", "binding signal": 2.73}
{"binder": "B3", "binding signal": 0.723}
{"binder": "B4", "binding signal": 2.41}
{"binder": "B5", "binding signal": 1.04}
{"binder": "B6", "binding signal": 0.842}
{"binder": "B7", "binding signal": 1.12}
{"binder": "B8", "binding signal": 0.684}
{"binder": "B9", "binding signal": 0.685}
{"binder": "B10", "binding signal": 1.27}
{"binder": "B11", "binding signal": 2.1}
{"binder": "B12", "binding signal": 2.06}
{"binder": "B13", "binding signal": 1.49}
{"binder": "B14", "binding signal": 0.425}
{"binder": "B15", "binding signal": 0.859}
{"binder": "B16", "binding signal": 2.8}
{"binder": "B17", "binding signal": 1.2}
{"binder": "B18", "binding signal": 1.57}
{"binder": "B19", "binding signal": 0.985}
{"binder": "B20", "binding signal": 0.674}
{"binder": "B21", "binding signal": 0.637}
{"binder": "B22", "binding signal": 2.13}
